PMC12136788
The list shows a part of the results.

B1: chr16:36023280:36023281:+_ENSMUSG00000022905_ENSMUST00000004054|mus_mus|motif|central (ssRNA)
RNA: GGGAGUUCUACAGUCCGACGAUCUGUCUGAAUAUCAUCCCCUGUGACAAUGUUUCCCACAGCCCGCAAAGCAGGAGAAACGGCUUUAUAGUCAUUAUGCAUCAGAAGUUCCACAAGCCUCCUGCAGACUCCUGCAUCGAUGACCAACAGAGGAUUGAGCAUCA
B2: chr1:181699228:181699229:-_ENSMUSG00000026491_ENSMUST00000027768|mus_mus|FALSE|FALSE (ssRNA)
RNA: GGGAGUUCUACAGUCCGACGAUCAAUUUUAGAUAAAACAUUGCUGAUGAACGUAGAUCGGGUUAACACUGUUCCAGUUAUAGCUUUCUUUGGAAAUGCCGAUAACGGUUUGGGUCUAGAAACUUCAUGAAAAACUGAGGAUGUCAACAGAGGAUUGAGCAUCA
B3: chr11:105967523:105967524:+_ENSG00000149313_ENST00000278618|hu_mus|FALSE|FALSE (ssRNA)
RNA: GGGAGUUCUACAGUCCGACGAUCCCAAAAUGAAGGAUCCUCAGGUGUCAUAGGAAUAGCAGAUGCUACCAAAUCAUUAAAAUUAAGAAUGGUAAACUUCCUCUGGGAUAGCUUAGAAUCAUCUUGAUAUGAAACAUUUUGAUGCAACAGAGGAUUGAGCAUCA
B4: chr5:137537078:137537079:-_ENSG00000094880_ENST00000394886|hu_mus|FALSE|FALSE (ssRNA)
RNA: GGGAGUUCUACAGUCCGACGAUCGAAUCCAUCAAGUCCCCGAGCCUGGUGCUUCCGGCUGAGUUCCACUCUCAGUUCUCUGAGAGCCUCGUUUUUGACUUGUCCCUUCUCUAGGGGUCCUAGGCUAUCAACUGUUUCGUCAUCCAACAGAGGAUUGAGCAUCA
B5: 101920281_101920401_2076_3pUTR_ENSMUSG00000017314_ENSMUST00000017458|mouse|control|control (ssRNA)
RNA: GGGAGUUCUACAGUCCGACGAUCGCAGUGUCACGAACCUCCUGACCACAAGGUCCCAAGCAGCUCUGCUCUUCCCUGGACUGGGAAUUACAGGAGUGAUCUGAGACACUCCUAGACACAGCAUGAUCCUUAGAAAAGGGUGUCCAACAGAGGAUUGAGCAUCA
B6: chr6:75965845:75965846:-_ENSG00000112697_ENST00000230461|hu_mus|motif|central (ssRNA)
RNA: GGGAGUUCUACAGUCCGACGAUCAUUUGGUUUCAGAAUAUAAAAUUAAAUGGUGAUGUCAGCAGUGUUACUACUGUUUCGGUAUUUAUGAUUAAUUACUAGCAGUACAACUCCCAGAAGGAAAGAGAUGGAUCCAAUAGUGAUCAACAGAGGAUUGAGCAUCA
B7: chrX:98614190:98614191:-_ENSMUSG00000031310_ENSMUST00000121520|mus_hu|FALSE|FALSE (ssRNA)
RNA: GGGAGUUCUACAGUCCGACGAUCAGGGGGGGCCCAUCCUCGAGUUGGGGCAGUCUGGGAUUCCAGUAGAUCCUCUCCAAAUUCCAUGUCUACUGGUAGGUCUCCAGCCAGGGGCUUCUCUGGCAGGGUCAAUGGGUCAAAUGGCAACAGAGGAUUGAGCAUCA
B8: chr2:174291214:174291215:-_ENSMUSG00000016257_ENSMUST00000016401|mus_mus|FALSE|FALSE (ssRNA)
RNA: GGGAGUUCUACAGUCCGACGAUCUUUUGUUUAGAUCAAAAGUCACAGCCUUACCCCACCUCAUUAAAAAAAAAGAUCUACCUAAAAUAAUUGUGUCUUUUAAAUAACAAAUAAUAUGAUGCCAGCUUGAGAGUCCUGGAGCCCCAACAGAGGAUUGAGCAUCA
B9: 43628485_43644409_965_CDS_ENSG00000112992_ENST00000512996|human|control|control (ssRNA)
RNA: GGGAGUUCUACAGUCCGACGAUCUCCUGGCUUAGUGGUUUCAAAGUUUCCACCAGCCUCAGCAGCUAAAUCCACAACAACUGAACCUUCCUUCAUUGACUCAAUCAUUUCUUUAUUAAAUAAAACUGGAGCUUUUUUACCUGGCAACAGAGGAUUGAGCAUCA
B10: chr5:37680062:37680063:+_ENSMUSG00000029121_ENSMUST00000031004|mus_hu|mus_mus_mus_hu_False|38_48 (ssRNA)
RNA: GGGAGUUCUACAGUCCGACGAUCUUUGGGUGUAGCUGGUACCUCGUACACAGGACCGUCAUACAUGCCCCUGGAAACCCCUUGCAACCCGAAAACCUUGCUUCUGAUUUUGACGCGCUGGUACAGGUGCUCCGGGAACGCCUUCAACAGAGGAUUGAGCAUCA
B11: chr18:51681570:51681571:-_ENSG00000134046_ENST00000256429|hu_mus|FALSE|FALSE (ssRNA)
RNA: GGGAGUUCUACAGUCCGACGAUCUAGAUAUAUACAUCAAAAAUACAUCUAAAAAGGCAUUGGUUAGUGCUAUUAAAAAGCUAUGUGCUCAGGUACACUUUUUCUUACAGGCGAAACCCAGUGGAAAUGUUUUAAUUCUGUUUCCAACAGAGGAUUGAGCAUCA
B12: chr12:113201503:113201504:-_ENSMUSG00000021290_ENSMUST00000021719|mus_mus|FALSE|FALSE (ssRNA)
RNA: GGGAGUUCUACAGUCCGACGAUCCCUGAUUUUAUAUACGAUGAGGCUCAUUAACCCCACUCCUACCCAAAUUUCCUGGUAAACCUGGGUAUAGUAGGGUUUCAUGGGGACCCAGACUUUUUGAAUCAAGGUUUGAAACAUCUCCAACAGAGGAUUGAGCAUCA
B13: chr7:100804371:100804372:+_ENSG00000106367_ENST00000337619|hu_hu|motif|central (ssRNA)
RNA: GGGAGUUCUACAGUCCGACGAUCCUUGCCCUUCCCCCAACCCUUCCUUCCCUCAAAGUGGCAAGGUUAGAAAAAAAUUAACGGUGUUGUUCCUCCCUGGCACUGGAUAAAGGCCCCACUGCAGCCAAGGAGAAAGAGGGGGGUCAACAGAGGAUUGAGCAUCA
B14: chr11:51926749:51926750:+_ENSMUSG00000020349_ENSMUST00000020608|perfect_dup|FALSE|FALSE (ssRNA)
RNA: GGGAGUUCUACAGUCCGACGAUCGUCCACAUAGUCUCCCAUAAACAGGUAAUUUGUAUCUGGUGAUUUACCACCAAUUCUAAAGAGUUCCAUGAGAUCAUGAAAUUGCCCAUGUACAUCUCCACACACAGUGACUGGACAUCGCAACAGAGGAUUGAGCAUCA
B15: chr6:83927055:83927056:+_ENSMUSG00000030016_ENSMUST00000032088|mus_mus|FALSE|FALSE (ssRNA)
RNA: GGGAGUUCUACAGUCCGACGAUCUGUACUUUUUGCUUUAGGAGAAGAGACCACAGUAGCCUUGAUGCUUGAUUUACUACUAUAUACAUUUGAUACAGUCAGCACACUACUUUUACCAGUUUCAUCAGGCUUACUGGUCUGAUCCAACAGAGGAUUGAGCAUCA
B16: chr4:25749455:25749456:-_ENSG00000091490_ENST00000264868|hu_hu|hu_hu_hu_mus_False|48_108 (ssRNA)
RNA: GGGAGUUCUACAGUCCGACGAUCGCAAGCACUAGGAUAGAAAAAUCCACAGGGGGAAAAAAUGUAAACCAAUGUACAAUGUUAUCGCCCUCCCUGCGUGUGGAGUGUUUGUCUCAAGGCUCCUUCUAGCUGCUGGAUUUGGGACAACAGAGGAUUGAGCAUCA
B17: chr4:76721835:76721836:+_ENSG00000138768_ENST00000264904|hu_mus|hu_hu_hu_mus_True|28_48 (ssRNA)
RNA: GGGAGUUCUACAGUCCGACGAUCGUUUGGCUGGGGUUUCUGAGACGCUCUGGAAUAUAACUCAUGUUUGCUAAUAAAUCCUAGUUUUCUAUGAAAUUUCUCUUUGCAAUCCUCUUCCUCUAUUAGUUGCUUUAGUUUCUCUUUCAACAGAGGAUUGAGCAUCA
B18: chr1:225611761:225611762:-_ENSG00000143815_ENST00000272163|hu_mus|hu_hu_hu_mus_True|8_38 (ssRNA)
RNA: GGGAGUUCUACAGUCCGACGAUCCCAGGCCAUCGGCCUCUGACCACUUCACCCUCAACAAACUUCCUACUUGGCAUUUUCUAAAAUUAGUCUGGCCCAGGUUCCGGGGGAACUCCAGCCACUCCAGGGAGAAUAGUAGCAGCCCAACAGAGGAUUGAGCAUCA
B19: chr1:220355683:220355684:-_ENSG00000118873_ENST00000358951|hu_mus|FALSE|FALSE (ssRNA)
RNA: GGGAGUUCUACAGUCCGACGAUCGCUGUGGCACAUCUCUUCAGUGGAGCUUUCUCCAUGCAAACACUUCCAGAAAAAGAAACUGCCUAGAGCCACACACUCCUCCUCUCCGACCUUCCUUAUGCUCAGUGCAUCCUUCUCAUACAACAGAGGAUUGAGCAUCA
B20: chr1:163112212:163112213:-_ENSG00000143248_ENST00000313961|hu_hu|hu_hu_hu_mus_False|58_108 (ssRNA)
RNA: GGGAGUUCUACAGUCCGACGAUCUUUAUUUAUCCAGAAGAGUGAGUUACAUACUAGGCAAAGUAUUGGAUACAAUAUUCUAAAGAUAAACACUAUUGGUCCAGAAUUUAAAACUUUAUGAGCGAAGUGCUGGCACAGGACUUACAACAGAGGAUUGAGCAUCA
B21: chr14:66974463:66974464:+_ENSMUSG00000022044_ENSMUST00000074523|mus_hu|mus_mus_mus_hu_False|28_58 (ssRNA)
RNA: GGGAGUUCUACAGUCCGACGAUCUUGUAGGACGACUUAUUCAGGGGAUCGGCCAGGAAGCAGGAGCAGAACAAGGACACUAGUGGGAGCUCCUUCAUCUUCUCUUUAUAGGCUGCAAGGGUCAUGUUUCUGGGAUCUGGUGGCCAACAGAGGAUUGAGCAUCA
B22: chr5:125368827:125368828:+_ENSMUSG00000079215_ENSMUST00000111417|mus_hu|FALSE|FALSE (ssRNA)
RNA: GGGAGUUCUACAGUCCGACGAUCUAGCUUCAAAAGGGUUAGUCAUAUUCCCCAGCAACAGCAUGAUAAAAUAAUUCAACUAUGUAGAAAUAUAGAACUCUAGGACUAGCUGGAAACUCGGAAAUCAUUUAGCCUAAUGUUCUCCAACAGAGGAUUGAGCAUCA

Biological target: T1, UNK ZnF1-3 (human, UniProt Q9C0B0 31-174)
T1 sequence: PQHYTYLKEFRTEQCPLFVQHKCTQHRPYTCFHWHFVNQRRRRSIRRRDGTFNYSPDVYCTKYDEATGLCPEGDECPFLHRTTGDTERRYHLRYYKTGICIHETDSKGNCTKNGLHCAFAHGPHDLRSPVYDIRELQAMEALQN
Assay: nsRBNS (natural sequence RNA bind-n-seq); RBNS binding buffer (assumed for nsRBNS): 25 mM Tris pH 7.5, 150 mM KCl, 3 mM MgCl2, 0.01% Triton X-100, 500 ug/ml BSA, 20 U/ml SUPERase-In, 4 C; UNK is unkempt and MSI1 is Musashi-1; names of the RNAs are library labels; protein concentration not given here; high values mean tight binding

Q: B1 was tested. Which binding signal did it give?
A: Its binding signal is 1.21 enrichment R.

Q: For B2, which binding signal is on record?
A: The binding signal was 1.03 enrichment R.

Q: With B3 as the binder, how does the binding signal read?
A: The binding signal was 1.18 enrichment R.

Q: For B4, which binding signal is on record?
A: Its binding signal is 0.49 enrichment R.

Q: Which binding signal does the source give for B5 here?
A: Its binding signal is 1 enrichment R.

Q: B6 was tested. Which binding signal did it give?
A: The binding signal was 1.31 enrichment R.

Q: How did the binding signal turn out when B7 was run?
A: The binding signal was 0.96 enrichment R.

Q: For B8, which binding signal is on record?
A: Its binding signal is 2.45 enrichment R.

Q: For B9, which binding signal is on record?
A: Its binding signal is 1.38 enrichment R.

Q: B10 was tested. Which binding signal did it give?
A: The binding signal was 0.662 enrichment R.

Q: Which binding signal does the source give for B11 here?
A: The binding signal was 1.23 enrichment R.

Q: For B12, which binding signal is on record?
A: The binding signal was 0.584 enrichment R.

Q: Which binding signal does the source give for B13 here?
A: The binding signal was 1.58 enrichment R.

Q: For B14, which binding signal is on record?
A: Its binding signal is 1.07 enrichment R.

Q: For B15, which binding signal is on record?
A: Its binding signal is 0.808 enrichment R.

Q: How did the binding signal turn out when B16 was run?
A: The binding signal was 1.13 enrichment R.

Q: B17 was tested. Which binding signal did it give?
A: Its binding signal is 0.552 enrichment R.

Q: B18 was tested. Which binding signal did it give?
A: The binding signal was 1.29 enrichment R.

Q: How did the binding signal turn out when B19 was run?
A: The binding signal was 1.09 enrichment R.

Q: Which binding signal does the source give for B20 here?
A: Its binding signal is 1.78 enrichment R.

Q: How did the binding signal turn out when B21 was run?
A: Its binding signal is 2.13 enrichment R.

Q: B22 was tested. Which binding signal did it give?
A: The binding signal was 1.38 enrichment R.
